Here are results for 33 compounds from the antibiotic and cytotoxicity screens of Wong et al. (2023).

This is one part of the list.

The first assay concerns HSkMC (human skeletal muscle cells). Description: cytotoxicity call (relative viability < 0.9). The note with it: 10 µM.
Turning to `C[C@H]1CN([C@@H](C)CO)C(=O)c2cc(NC(=O)Nc3cccc4ccccc34)ccc2O[C@H]1CN(C)Cc1ccc(C(F)(F)F)cc1`, the cytotoxicity call was “active”.
Still for that read-out and setting: as for `C[C@H]1CN([C@@H](C)CO)S(=O)(=O)c2ccc(C3=CCCC3)cc2O[C@H]1CN(C)C(=O)c1cnccn1`, the entry is “inactive”.
On the same count and under the same terms, the same measure for `Cc1ccc(/C=N/N(C)C2=NCCN2)o1`: “inactive”; for `C[C@@H]1CN([C@@H](C)CO)C(=O)Cc2cc(NC(=O)CCC(F)(F)F)ccc2O[C@@H]1CN(C)Cc1ccc(C(=O)Nc2ccccc2N)cc1`: “inactive”; for `CC(=CCC1=C(C)C(=O)c2ccccc2C1=O)CCCC(C)CCCC(C)CCCC(C)C` (stereo not drawn): “inactive”.
For the compound `C[C@@H]1CCCCO[C@@H](CN(C)C(=O)Nc2ccc(C(F)(F)F)cc2)[C@@H](C)CN([C@H](C)CO)C(=O)c2cc(NS(=O)(=O)c3cn(C)cn3)ccc2O1`, the cytotoxicity call was “inactive”.
The same measure, in the same setting: as for `C[C@@H]1CN([C@@H](C)CO)C(=O)c2cccc(NS(C)(=O)=O)c2O[C@@H]1CN(C)S(=O)(=O)c1ccc(Cl)cc1`, the entry is “inactive”.

For another assay, the system named is HepG2. Description: cytotoxicity call (relative viability < 0.9). The settings on record: 10 µM.
Consider `C[C@H](CO)N1C[C@H](C)[C@@H](CN(C)S(C)(=O)=O)Oc2c(cccc2N(C)C)C1=O`, for which the cytotoxicity call is “inactive”.
Regarding `O=C1N[C@@H](Cc2c[nH]c3ccccc23)COC(=O)[C@H](Cc2ccc(F)cc2)CCC=CC[C@H]1CC(=O)N(CCO)Cc1ccccc1`, the cytotoxicity call is “inactive”.
On the same count and under the same terms, as for `CC(C)NC(=O)NCC[C@H]1CC[C@@H](NC(=O)CN(C)C)[C@@H](CO)O1`, the entry is “inactive”; as for `FCOC(C(F)(F)F)C(F)(F)F`, “inactive”.
The same measure, in the same setting: the same measure for `CCS(=O)(=O)Nc1ccc2c(c1)C(=O)N(C)[C@H]1CC[C@@H](CC(=O)NCCOC)O[C@H]1CO2`: “inactive”.
Turning to `CC(O)(CN)CCc1ccccc1` (stereo not drawn), the cytotoxicity call is “inactive”.
The same measure, in the same setting: as for `O=C(O)CN1C(=O)c2cccc3cccc(c23)C1=O`, the entry is “inactive”; as for `O=C(C[C@@H]1CC=CCC[C@@H](Cc2ccc(F)cc2)C(=O)OC[C@H](Cc2ccccc2)NC1=O)NCCO`, “inactive”.
Same read-out and setting: the same measure for `C[C@@H]1CN([C@H](C)CO)C(=O)c2cc(NC(=O)C3CCCCC3)ccc2O[C@@H](C)CCCCO[C@@H]1CN(C)S(=O)(=O)c1ccccc1`: “inactive”; for `C[C@@H]1CN([C@H](C)CO)C(=O)c2cc(NC(=O)Cc3ccccc3)ccc2O[C@@H]1CN(C)Cc1ccc(Oc2ccccc2)cc1`: “inactive”.
With `C[C@H](CO)N1C[C@H](C)[C@@H](CN(C)CC2CC2)OCCCC[C@H](C)Oc2ccc(NC(=O)Nc3ccc(F)cc3)cc2C1=O`, the cytotoxicity call is “inactive”.
Still for that read-out and setting: the same measure for `CCCCCCCCCCCCCCCCOc1nc2ccc(C)cc2c(=O)o1`: “inactive”.
As to `C[C@@H]1CN([C@@H](C)CO)C(=O)c2cccc(NC(=O)c3ccc(-c4nccs4)cc3)c2O[C@@H]1CN(C)C(=O)Nc1ccc2c(c1)OCO2`, the cytotoxicity call is “inactive”.
On the same count and under the same terms, as for `COc1ccc(S(=O)(=O)Nc2ccc3c(c2)CC(=O)N([C@H](C)CO)C[C@H](C)[C@H](CN(C)Cc2ccc(C(=O)O)cc2)O3)cc1`, the entry is “inactive”.
For the compound `C[C@@H]1CN([C@H](C)CO)C(=O)c2cccc(NC(=O)Nc3cccc4ccccc34)c2O[C@@H]1CN(C)Cc1ccncc1`, the cytotoxicity call was “inactive”.
Take `C[C@H]1CN([C@@H](C)CO)S(=O)(=O)c2ccc(-c3cccc(C#N)c3)cc2O[C@@H]1CN(C)C(=O)c1cccnc1`: the cytotoxicity call was “inactive”.
Take `COC(=O)[C@H]1[C@H](CO)[C@H]2Cn3c(ccc(-c4ccccc4)c3=O)[C@H]2N1S(C)(=O)=O`: the cytotoxicity call was “inactive”.
Still for that read-out and setting: the same measure for `C[C@@H](O)CN1C(=S)S[C@@H]2CS(=O)(=O)C[C@@H]21`: “inactive”; for `Cc1ccc(OCc2ccc(Cl)cc2)c(C(C)(C)C)c1`: “inactive”; for `CCCCC(CC)COC(=O)CC(C(=O)OCC(CC)CCCC)S(=O)(=O)[O-].[Na+]` (stereo not drawn): “inactive”.
Still for that read-out and setting: as for `COc1c(-c2ccccc2)oc2c(ccc3ccoc32)c1=O`, the entry is “inactive”; as for `C[C@@H]1CCCCO[C@@H](CN(C)C(=O)Nc2cccc3ccccc23)[C@H](C)CN([C@H](C)CO)C(=O)c2cc(NC(=O)Cc3ccccc3)ccc2O1`, “inactive”.
Turning to `COc1ccc(NC(=O)Nc2ccc3c(c2)C(=O)N([C@H](C)CO)C[C@@H](C)[C@H](CN(C)Cc2ccccc2)OCCCC[C@@H](C)O3)cc1`, the cytotoxicity call is “active”.
The same measure, in the same setting: the same measure for `C[C@H]1CN([C@@H](C)CO)C(=O)Cc2cc(NC(=O)C3CCCCC3)ccc2O[C@H]1CN(C)C(=O)Nc1ccc(C(F)(F)F)cc1`: “inactive”.
For the compound `CNC[C@@H]1OCCCC[C@H](C)Oc2ccc(NC(=O)Nc3ccc(C(F)(F)F)cc3)cc2C(=O)N([C@@H](C)CO)C[C@H]1C`, the cytotoxicity call was “inactive”.
Take `Cc1noc(C)c1NC(=O)N(C)C[C@H]1Oc2c(NS(=O)(=O)c3ccccc3)cccc2C(=O)N([C@@H](C)CO)C[C@@H]1C`: the cytotoxicity call was “inactive”.
